# According to the supplement of paper PMC9135407:
# “And” between values parts separate entries of the source, which are not always exact repeats. Equal values may be shown once. Where a name gives a salt, the structure may show the parent alone. The campaign covered roughly 5,800 compounds. About 620 (11%) showed activity.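 Rule for the calls: active = score above a cut-off or among the top three wells of a plate; in these data no inactive exceeds 0.85.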 The list shows a part of the results, in another mix than the full data.
# Tested on: primary human hepatic stellate cells (donor 1)
# Assay: scaled lipid accumulation score (0 = DMSO-like, 1 = nortriptyline-like); higher = stronger HSC inactivation (lipid re-accumulation), active = hit call of the paper
# Settings: 48 h
# Procedure: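 Primary lipid accumulation screen in primary human hepatic stellate cell myofibroblasts (donor 1, passage 8) in 384-well plates. 100 nL of library compound was pin-transferred into 30 µL medium in duplicate, and cells were treated for 48 h. The 'Scaled' score combines distance from plate baseline, toxicity and reproducibility penalties, and is normalised to nortriptyline (positive) and DMSO (negative) controls on each plate. A hit is defined as scaled >0.85 or among the top 3 wells per plate.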
# [1] = library stock concentration: 1 mM
# [2] = library stock concentration: 10 mM
# [3] = library stock concentration: 3.33 mM
smiles,measurement,setting,value
CCCCCCCCCCCCCCCCOP(=O)([O-])OCC[N+](C)(C)C [Miltefosine],scaled lipid accumulation score,[1],inactive: ≤ 0
same,scaled lipid accumulation score,library stock concentration: 4.9 mM,inactive: ≤ -0.006
same,scaled lipid accumulation score,[2],inactive: 0.007
CN(C)c1ccc(O)c2c1C[C@H]1C[C@H]3[C@H](N(C)C)C(O)=C(C(N)=O)C(=O)[C@@]3(O)C(O)=C1C2=O [Minocycline hydrochloride],scaled lipid accumulation score,,inactive: ≤ 0
same,scaled lipid accumulation score,library stock concentration: 4 mM,inactive: ≤ -0.001
same,scaled lipid accumulation score,[2],inactive: ≤ -0.055
CN(C)c1ccc(O)c2c1C[C@H]1C[C@H]3[C@H](N(C)C)C(O)=C(C(N)=O)C(=O)[C@@]3(O)C(O)=C1C2=O,scaled lipid accumulation score,[2],inactive: ≤ 0
CN(C)c1ccc(O)c2c1C[C@H]1C[C@H]3[C@H](N(C)C)C(O)=C(C(N)=O)C(=O)[C@@]3(O)C(O)=C1C2=O [Minocycline HCl],scaled lipid accumulation score,library stock concentration: 4.4 mM,inactive: ≤ 0
CCCCCCCCCC(=O)NC(CN1CCOCC1)[C@H](O)c1ccccc1 (stereo partly specified),scaled lipid accumulation score,[2],inactive: ≤ 0
COc1cc(C(C)=O)ccc1O [Apocynin],scaled lipid accumulation score,[3],inactive: ≤ 0
same,scaled lipid accumulation score,[2],inactive: 0.031
CCN1CCc2nc(N)oc2CC1 [B-HT 933 dihydrochloride],scaled lipid accumulation score,[2],inactive: 0.188
C[N+](C)(C)CCOC(=O)CCC(=O)OCC[N+](C)(C)C [Succinylcholine],scaled lipid accumulation score,library stock concentration: 6.9 mM,inactive: ≤ 0
C[N+](C)(C)CCOC(=O)CCC(=O)OCC[N+](C)(C)C [Succinylcholine chloride],scaled lipid accumulation score,[2],inactive: ≤ 0
O=C(CCCCCCC(=O)Nc1ccc([C@H]2O[C@@H](CSc3nc(-c4ccccc4)c(-c4ccccc4)o3)C[C@@H](c3ccc(CO)cc3)O2)cc1)NO [Tubacin],scaled lipid accumulation score,[3],inactive: ≤ 0
same,scaled lipid accumulation score,[2],inactive: ≤ 0
Nc1nc(NC2CC2)c2ncn([C@H]3C=C[C@@H](CO)C3)c2n1,scaled lipid accumulation score,[2],inactive: ≤ 0
Nc1cc(F)ccc1NC(=O)/C=C/c1cnn(C/C=C/c2ccccc2)c1,scaled lipid accumulation score,[3],inactive: 0.048
same,scaled lipid accumulation score,[2],inactive: 0.024
CCCC[C@@H](C=O)NC(=O)[C@H](CC(C)C)NC(=O)[C@H](CC(C)C)NC(C)=O,scaled lipid accumulation score,library stock concentration: 13 mM,inactive: 0.811
CC#CCC(C)C(=O)/C=C/[C@@H]1[C@H]2C/C(=C/CCCC(=O)O)C[C@H]2C[C@H]1O (stereo partly specified) [15-keto Iloprost],scaled lipid accumulation score,[1],inactive: ≤ 0
CCOc1ccc2nc3cc(N)ccc3c(N)c2c1,scaled lipid accumulation score,[2],inactive: 0.362
CCOc1ccc2nc3cc(N)ccc3c(N)c2c1 [Ethacridine lactate monohydrate],scaled lipid accumulation score,[3],inactive: ≤ 0
same,scaled lipid accumulation score,[2],inactive: 0.493
CCN(CC)CCNc1ccc(CO)c2sc3ccccc3c(=O)c12 [Hycanthone],scaled lipid accumulation score,,inactive: 0.425
same,scaled lipid accumulation score,[2],inactive: 0.449
O=C(COc1ccc(Cl)cc1)N1CCN(Cc2ccc3c(c2)OCO3)CC1 [Fipexide hydrochloride],scaled lipid accumulation score,,inactive: ≤ 0
same,scaled lipid accumulation score,[2],inactive: ≤ -0.009
CNC(C)CCC=C(C)C (stereo unspecified) [Isometheptene mucate],scaled lipid accumulation score,,inactive: ≤ 0
"CN(Cc1cnc2nc(N)nc(N)c2n1)c1ccc(C(=O)N[C@@H](CCC(=O)O)C(=O)O)cc1 (racemic) [Amethopterin (R,S)]",scaled lipid accumulation score,,inactive: ≤ 0
CN(Cc1cnc2nc(N)nc(N)c2n1)c1ccc(C(=O)N[C@@H](CCC(=O)O)C(=O)O)cc1 [Methotrexate hydrate],scaled lipid accumulation score,[2],inactive: ≤ 0
CN(Cc1cnc2nc(N)nc(N)c2n1)c1ccc(C(=O)N[C@@H](CCC(=O)O)C(=O)O)cc1,scaled lipid accumulation score,[2],inactive: ≤ 0
CN(Cc1cnc2nc(N)nc(N)c2n1)c1ccc(C(=O)N[C@@H](CCC(=O)O)C(=O)O)cc1 [Methotrexate],scaled lipid accumulation score,,inactive: ≤ 0
same,scaled lipid accumulation score,[3],inactive: ≤ 0
same,scaled lipid accumulation score,[2],inactive: ≤ 0
same,scaled lipid accumulation score,library stock concentration: 11 mM,inactive: ≤ -0.012
Cc1ccc2c(=O)c3ccccc3n(CCCN)c2c1C,scaled lipid accumulation score,[2],inactive: 0.501
COc1ccccc1N1CCN(CCCCNC(=O)c2ccc3ccccc3c2)CC1,scaled lipid accumulation score,,inactive: 0.307
CCC1NC(=O)c2cc(S(N)(=O)=O)c(Cl)cc2N1 (stereo unspecified) [Quinethazone],scaled lipid accumulation score,,inactive: 0.017
NC(=O)c1ccc[n+]([C@@H]2O[C@H](COP(=O)([O-])OP(=O)(O)OC[C@H]3O[C@@H](n4cnc5c(N)ncnc54)[C@H](OP(=O)(O)O)[C@@H]3O)[C@@H](O)[C@H]2O)c1 [Sodium beta-nicotinamide adenine dinucleotide phosphate],scaled lipid accumulation score,[2],inactive: ≤ -0.027
"CC(O)(P(=O)(O)O)P(=O)(O)O [Etidronic acid, disodium salt]",scaled lipid accumulation score,,inactive: ≤ 0
CC(O)(P(=O)(O)O)P(=O)(O)O [Etidronate disodium],scaled lipid accumulation score,library stock concentration: 8 mM,inactive: ≤ 0
Cc1cnc(C(=O)NCCc2ccc(S(=O)(=O)NC(=O)NC3CCCCC3)cc2)cn1,scaled lipid accumulation score,[2],inactive: ≤ 0
Cc1cnc(C(=O)NCCc2ccc(S(=O)(=O)NC(=O)NC3CCCCC3)cc2)cn1 [Glipizide],scaled lipid accumulation score,,inactive: 0.161
same,scaled lipid accumulation score,[3],inactive: ≤ 0
same,scaled lipid accumulation score,library stock concentration: 4.5 mM,inactive: ≤ -0.006 and inactive: ≤ 0
same,scaled lipid accumulation score,[2],inactive: ≤ 0 and inactive: 0.167
Cc1cc(-c2ncc(CC(=O)Nc3ccc(-c4cnccn4)cn3)cc2C)ccn1,scaled lipid accumulation score,[3],inactive: ≤ -0.009
same,scaled lipid accumulation score,[2],inactive: 0.036
CC(C)NC[C@H](O)COc1cccc2[nH]ccc12 [(S)-(-)-Pindolol],scaled lipid accumulation score,[2],inactive: 0.001
CC(C)NC[C@H](O)COc1cccc2[nH]ccc12 [S(-)-Pindolol],scaled lipid accumulation score,[2],inactive: ≤ -0.07
NC(=O)Nc1sc(-c2ccccc2)cc1C(N)=O [IKK-2 Inhibitor VI],scaled lipid accumulation score,[3],inactive: ≤ 0
CCc1ccc2c(O)c3c(cc2c1C(=O)OC)C(=O)c1c(O)ccc(O)c1C3=O [Bisanhydrorutilantinone],scaled lipid accumulation score,[2],inactive: 0.11
CN(C)[C@@H]1CCc2[nH]c3ccc(NC(=O)c4ccc(F)cc4)cc3c2C1.Cl,scaled lipid accumulation score,[2],active: 1.37
O=C(Cc1ccccc1)Nc1nc2ccc(Cl)cc2c2nc(-c3ccco3)nn12,scaled lipid accumulation score,[2],inactive: 0.596
c1cc2c3c(c1)c1c(n3CCNC2)CCCC1 [WAY 629 hydrochloride],scaled lipid accumulation score,[2],inactive: 0.253
"c1cc(-c2cnn3cc(-c4ccc(OCCN5CCCCC5)cc4)cnc23)ccn1 [AMPK Inhibitor, Compound C]",scaled lipid accumulation score,[3],inactive: ≤ 0
c1cc(-c2cnn3cc(-c4ccc(OCCN5CCCCC5)cc4)cnc23)ccn1 [Dorsomorphin],scaled lipid accumulation score,library stock concentration: 80 uM,inactive: ≤ 0
same,scaled lipid accumulation score,library stock concentration: 400 uM,inactive: ≤ 0
same,scaled lipid accumulation score,library stock concentration: 2 mM,inactive: 0.557
same,scaled lipid accumulation score,[2],inactive: 0.469
